According to PubChem BioAssay AID1508642 (National Center for Advancing Translational Sciences (NCATS), 2021):
Hit rate of the full screen: of about 43,000 compounds, about 200 (0.47%) were called active. Not shown: some 12% with an inconclusive outcome. Calls follow the shape of the dose curve; as a rule, active = well fitted cell-killing curve with a large enough effect; inconclusive = small, poorly fitted or top-dose-only effect, or effect the other way; inactive = flat fitted curve, though single readings scatter. The list shows a part of the results.

test: Cell viability qHTS assay in S16 Pmp22-F2sN cells; conditions: S16 Pmp22-F2sN Schwann cells (luciferase reporters placed in the Pmp22 gene) viability, CellTiter-Glo, 24 h; series mostly up to 57.5 µM; activity change, negative = cytotoxicity: at the top concentration; also: nearly all actives have a fitted effect of over 65% in size
Summary of the method: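 Luminescence from CellTiter-Glo, read by CCD camera after a 15 min room-temperature incubation, served as the viability signal. Reporter Schwann cells (S16 Pmp22-F2sN) had been treated with pin-transferred compounds for 24 h at 37C.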
% is scaled to controls: 0 for no effect and ±100 for the full control effect.

SMILES | activity change, negative = cytotoxicity
Cc1cc2ccccc2n2c(SCC(=O)Nc3cccc(C(F)(F)F)c3)nnc12 | inactive: -29.4%
CCCn1c2ccccc2c2cnn(CC(=O)Nc3ccc(C)cc3Br)c(=O)c21 | inactive: 3.94%
CCOc1ccccc1NC(=O)c1cnc(N2CCOCC2)c2ccccc12 | inactive: -4.61%
COc1ccc(OCc2nc3c4c(-c5ccc(OC)cc5)c(-c5ccc(OC)cc5)oc4ncn3n2)cc1 | inactive: -2.22%
COc1ccc(NC(=O)CCS(=O)(=O)c2nc(-c3ccc4c(c3)OCO4)cc(C(F)(F)F)n2)c(OC)c1 | inactive: 17.7%
COc1ccc(CCNC(=O)c2cc(S(=O)(=O)N3CCCC(C)C3)cn2C)cc1OC (stereo unspecified) | inactive: 10.9%
O=C(O)c1ccc2c(c1)N(Cc1ccc(F)cc1Cl)C(=O)c1ccccc1S2 | inactive: 28.8%
CC(CNC(=O)CCCn1c(=O)c2cccn2c2ccccc21)c1ccccc1 (stereo unspecified) | inactive: -5.56%
CCN(C(=O)c1cnc(N2CCOCC2)c2ccccc12)c1cc(C)ccc1C | inactive: 11.9%
CC(C)N(Cc1ccccc1)C(=O)CN1C(=O)COc2ccc(S(=O)(=O)N3CCCCCC3)cc21 | inactive: -1.24%
CCOc1ccc(NC(=O)Cn2cc(C(=O)c3ccccc3)c(=O)c3cc4c(cc32)OCO4)cc1 | inactive: 7.75%
Cc1ccc(Cn2c(=O)n(-c3ccc(C)c(C)c3)c(=O)c3c(C)c(C)sc32)cc1 | inactive: 1.37%
CCOc1ccc(CNC(=O)C2=Cc3cc(Br)ccc3OC2)cc1OC | inactive: 2.53%
COc1ccccc1NC(=O)c1oc2ccccc2c1NC(=O)COc1ccccc1OC | inactive: 4.51%
COc1ccc(Cl)cc1NC(=O)CSc1nc(=O)[nH]c2c1CCCC2 | inactive: 11.5%
CCOc1ccc(OCC)c(NC(=O)c2csc3c2CCCC3)c1 | inactive: 1.68%
Cc1ccc2oc(-c3ccc(NC(=O)c4cccc(F)c4)c(C)c3)nc2c1 | inactive: 7.27%
CC(=O)N1c2c(cc(Br)cc2S(=O)(=O)NCc2ccccc2Cl)CC1C (stereo unspecified) | inactive: 18.5%
COc1ccc(NC(=O)c2cc(C)nc3c2c(C)nn3-c2cccc(Cl)c2C)c(OC)c1 | inactive: -5.7%
COc1cc(Cl)c(NC(=O)CN(C)S(=O)(=O)c2ccc3c(c2)CCCC(=O)N3)c(OC)c1 | inactive: 1.84%
COc1cc(NC(=O)N2CCC(CN3CCc4ccccc4C3)CC2)cc(OC)c1 | inactive: -1.3%
COC(=O)c1ccc(CSc2nc3c([nH]c4ccccc43)c(=O)n2-c2cc(C)cc(C)c2)o1 | inactive: 9.15%
CN(C(=O)Cn1ncc2c1-c1ccccc1OC2)c1ccc(Br)cc1 | inactive: 24.1%
CCCCCn1c(CNC(=O)c2ccc(F)cc2)nc2ccccc21 | inactive: -12.3%
O=C1COc2cc(S(=O)(=O)CCC(=O)N3CCN(c4ccccc4)CC3)c(Cl)cc2N1 | inactive: 19.9%
Cc1ccc(S(=O)(=O)NCCc2nnc3ccc(SCC(=O)Nc4ccc(OC(F)(F)F)cc4)nn23)cc1 | inactive: 5.34%
